# Source: PubChem BioAssay AID652104 (National Center for Advancing Translational Sciences (NCATS), 2013)
# Out of some 410,000 compounds screened, about 7,200 (1.8%) were called active. The inconclusive results got no clear call from the source; some entries with a clear call stand among them for comparison. The call rests on the fitted dose curve; in most records, active means well fitted activation curve with a large enough effect; inconclusive means small, poorly fitted or top-dose-only effect, or another doubt; inactive means no such curve, though single readings can be large or run the other way. Potencies of inconclusive entries are left out as doubtful fits. Some compounds were tested as several samples or in several runs, with calls that do not always agree.
# Test: qHTS of TDP-43 Inhibitors; further: nearly all actives have a fitted effect of over 50% in size; on growth rescue (activation): % of control where 0% means no effect
# Conditions: TDP-43 expressing yeast growth rescue, BacTiter-Glo, 24 h; growth rescue (activation): at 46.1 µM (top of the series) unless noted
# Outline: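 Growth rescue of TDP-43-toxic yeast measured as ATP luminescence (BacTiter-Glo). Cells grown to mid-log in raffinose, induced in galactose at OD600=0.02, exposed to compound 24 hr at 30 deg C.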
# Potency means the concentration at half of the fitted maximal effect; tags describe the fitted curve by direction and shape.
SMILES,growth rescue (activation),Potency
O=S(=O)(c1ccc2c(c1)CCCN2)N1CCCC2CCCCC21 (stereo unspecified),inconclusive: 84.9% [activator],–
COc1ccc(Cl)cc1NC(=O)c1oc(C)nc1C,inactive: -4.05%,–
CC1(C(=O)Nc2cccc(Oc3ccccc3)c2)CCN1Cc1cc2ccccc2o1 (stereo unspecified),–,"inconclusive [activator, partial curve]"
O=C(Cc1ccsc1)N1CCc2c([nH]c3ccccc23)C1c1ccccn1 (stereo unspecified),–,"inconclusive [activator, single point]"
CC1=NN(/C(=N\c2nnc(C)s2)Nc2ccccc2)[C@H](c2cccc3ccccc23)S1,–,"inconclusive [activator, single point]"
CS(=O)(=O)N(CC(=O)Nc1ccccc1Sc1ccccc1)c1ccc(F)cc1,inactive: -10.6%,–
Fc1ccc(-c2nnc(CN3CCN(c4ncc(C(F)(F)F)cc4Cl)CC3)o2)cc1,–,"inconclusive [activator, single point]"
CC1=C(C(=O)NCc2ccccc2Cl)C2(CCCCCC2)OC1=O,–,"inconclusive [activator, single point]"
Cc1cc2ncn(/N=C/c3ccc(-c4ccccc4)o3)c2cc1C,–,"inconclusive [activator, partial curve]"
CCCN1CCN(CCCNC(=O)c2ccc3c(c2)sc2nc(-c4ccc(OC)cc4)cn23)CC1,inactive: -44.9%,–
CC(=O)O[C@H]1CC[C@H]2[C@@H]3CCc4cc(O)ccc4[C@H]3CC[C@]12C,–,"inconclusive [activator, partial curve]"
CC(C)OC(=O)CC(=O)c1sc2nc3c(cc2c1N)CN(C)CC3,inactive: 7.69%,–
COc1ccccc1NC(=O)CCC(=O)OCc1cccc([N+](=O)[O-])c1,–,"inconclusive [activator, full curve, poor fit]"
CCC/C=N/NC(=O)C1COc2ccccc2O1 (stereo unspecified),–,"inconclusive [activator, partial curve]"
COc1cccc(Nc2nnc(-c3cc4ccc(O)cc4oc3=O)s2)c1,inactive: 15.5%,–
COc1cccc(C2CC(=O)Nc3c2c(=O)n(C)c2nc4ccccc4n32)c1OC (stereo unspecified),inactive: 4.8%,–
O=C(CCn1c(=O)c2sccc2n(Cc2ccc(F)cc2)c1=O)NCc1ccc2c(c1)OCO2,inactive: 13.5%,–
Cc1ccc(CCNS(=O)(=O)c2ccc(C)cc2)cc1,–,active: 15.8 µM
CSc1ncnc2c1ncn2CCCNc1ccc(C)c(C)c1,–,"inconclusive [activator, partial curve, poor fit]"
Nc1nc(CSC(=S)N2CCCCC2)nc(Nc2ccccc2)n1,–,"inconclusive [activator, single point]"
Cc1cc(C)c(S(=O)(=O)Nc2ccc3oc(C)c(C(=O)OC(C)C)c3c2)cc1C,–,"inconclusive [activator, partial curve]"
CN(C)c1ccc(/C=C/c2nnnn2-c2ccccc2)cc1,–,"inconclusive [activator, partial curve]"
COc1cccc(/C=N/n2cnc3c(cnn3-c3ccccc3)c2=O)c1,inactive: 7.24%,–

SMILES,growth rescue (activation),Potency
COc1ccccc1C(=O)N1CCN(C(=O)c2ccncc2)CC1,inactive: -25.1%,–
Cc1cc(SCC(=O)OCC(=O)N2CCCC2=O)c(C)cc1Br,–,"inconclusive [activator, single point]"
COc1cc(NC(=O)c2ccc(COc3ccccc3Br)o2)cc(OC)c1OC,–,"inconclusive [activator, single point]"
Cc1ccc(Cl)cc1NC(=O)Cn1c(=O)cc(C)c2c(C)nn(C)c21,–,"inconclusive [activator, full curve]"
CN(C)c1nc(Nc2ccc(Cl)cc2)nc(OCC#N)n1,–,active: 11.2 µM
CC(C)C1Nc2c(O)cc(Cl)c([N+](=O)[O-])c2C2C=CCC21 (stereo unspecified),inconclusive: -93.2% [activator],–
COC(=O)Nc1ccc2ncn(C)c(=O)c2c1,–,"inconclusive [activator, partial curve, poor fit]"
O=C(Nc1ccc(F)cc1)C1CCCN1S(=O)(=O)c1ccc(Br)cc1 (stereo unspecified),–,"inconclusive [activator, single point]"
OC(CCc1cccc(Cl)c1)c1cccs1 (stereo unspecified),–,"inconclusive [activator, partial curve]"
CCN(CC(=O)NCc1cccs1)CC(=O)Nc1ccccc1C,inactive: 4.67%,–
Cc1ccc2nc(-c3ccc(NC(=O)Cc4ccccc4)cc3)sc2c1,inconclusive: 43.5% [activator],–
COc1ccc(N2CCN(C(=O)CSc3nnc4c(C)cc5cc(C)ccc5n34)CC2)cc1,–,"inconclusive [activator, single point]"
Cc1ccc(Cl)cc1N1CCN(C(=O)Cn2cnc3onc(-c4ccc(F)cc4)c3c2=O)CC1,–,"inconclusive [activator, single point]"
CCc1nc2ccc(C(=O)N3CCN(c4ccccc4F)CC3)cc2nc1CC,–,active: 20 µM
CCOC(=O)C1(C)CCCN(C(=O)c2snnc2C)C1 (stereo unspecified),–,"inconclusive [activator, full curve, poor fit]"
CCCNC(=O)NC(=O)COC(=O)c1ccc(OC)c(S(=O)(=O)N2CCCc3ccccc32)c1,–,"inconclusive [activator, full curve, poor fit]"
COc1cccc2sc(NC(=O)c3ccc4c(c3)OCCO4)nc12,inactive: 29.6%,–
O=C(CSc1nccn(-c2cccc(F)c2)c1=O)Nc1ccc(Cl)cc1F,–,active: 17.8 µM
COC(=O)c1cccc(NC(=S)Nc2cccc(Cl)c2Cl)c1,–,active: 17.8 µM
Cc1onc(-c2ccccc2)c1C(=O)Nc1nnc(COc2ccc(Cl)cc2)s1,–,"inconclusive [activator, partial curve]"
Cc1ccc(-n2cc(CN3CCNC(=O)CC3)c(-c3cccc(C)c3)n2)cc1,inactive: 5.26%,–
COc1ccccc1CNC(=O)c1cc(-c2cc(F)ccc2OC(C)C)n[nH]1,–,active: 25.1 µM
CSC1SCC2C(=O)N(C)C(C(C)C)C(=O)OCC(NC(=O)c3cnc4ccccc4n3)C(=O)NC(C)C(=O)N(C)C1C(=O)N(C)C(C(C)C)C(=O)OCC(NC(=O)c1cnc3ccccc3n1)C(=O)NC(C)C(=O)N2C (stereo unspecified),–,"inconclusive [activator, single point]"
